{"source": "the supplement of paper PMC3334620", "note": "Over roughly 33,000 sequences, “E-score (-0.5 to 0.5)” has its median near -0.035; the highest 2% begin near 0.34. Some of the results follow.", "data": [{"biological_target": "T1, Mot3 (UniProt P54785)", "T1 sequence": "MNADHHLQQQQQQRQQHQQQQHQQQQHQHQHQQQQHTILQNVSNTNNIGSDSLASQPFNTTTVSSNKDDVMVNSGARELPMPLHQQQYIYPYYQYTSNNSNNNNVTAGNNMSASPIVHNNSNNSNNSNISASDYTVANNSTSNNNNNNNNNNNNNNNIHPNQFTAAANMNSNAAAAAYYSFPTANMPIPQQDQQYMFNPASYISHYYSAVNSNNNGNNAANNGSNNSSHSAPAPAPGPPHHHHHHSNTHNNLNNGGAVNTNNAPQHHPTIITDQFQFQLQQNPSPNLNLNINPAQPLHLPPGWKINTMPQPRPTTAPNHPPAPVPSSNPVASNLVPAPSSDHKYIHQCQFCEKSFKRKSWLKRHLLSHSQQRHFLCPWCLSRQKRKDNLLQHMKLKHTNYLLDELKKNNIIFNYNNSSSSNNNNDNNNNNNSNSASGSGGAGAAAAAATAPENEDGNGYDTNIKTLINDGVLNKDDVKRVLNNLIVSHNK", "assay": "PBM E-score (8-mer binding enrichment) (E-score (-0.5 to 0.5)); higher = stronger / more preferred TF binding; most listed sequences are background and not binding sites", "conditions": "protein concentration: 200 nM; construct: GST-full length", "procedure": "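Universal 'all 10-mer' protein binding microarrays (Agilent AMADID 015681) probed with GST-tagged S. cerevisiae TFs (full-length or DBD) made by in vitro transcription/translation (PURExpress), about 100-200 nM. Bound TF was detected with fluorescent anti-GST. Each ungapped 8-mer (which stands for itself and its reverse complement) is scored by the PBM enrichment score (E-score), a modified Wilcoxon-Mann-Whitney statistic from -0.5 to +0.5, computed with the Universal PBM Analysis Suite. Scale: above 0.35 generally sequence-specific binding.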", "values": [{"sequence": "CCCCTGCC", "PBM E-score": -0.119}, {"sequence": "AGGCGTTC", "PBM E-score": 0.187}, {"sequence": "ATTCGAGC", "PBM E-score": -0.0218}, {"sequence": "GTATGAAA", "PBM E-score": 0.0714}, {"sequence": "TATAGACA", "PBM E-score": 0.157}, {"sequence": "GGATTGAA", "PBM E-score": -0.187}, {"sequence": "GATGAGGA", "PBM E-score": -0.0833}, {"sequence": "ACAGGGTA", "PBM E-score": 0.117}, {"sequence": "AAGTAACG", "PBM E-score": 0.067}, {"sequence": "GGGGGGGA", "PBM E-score": -0.353}, {"sequence": "AAGTTAGT", "PBM E-score": 0.119}, {"sequence": "GGGGGTAA", "PBM E-score": -0.221}, {"sequence": "AGAGGTTA", "PBM E-score": 0.0342}, {"sequence": "AATTCGAT", "PBM E-score": -0.00758}, {"sequence": "ACGTGGGA", "PBM E-score": -0.11}, {"sequence": "GTACTCAA", "PBM E-score": 0.0157}, {"sequence": "AGGCTATC", "PBM E-score": 0.0128}, {"sequence": "AATAGGAA", "PBM E-score": 0.415}, {"sequence": "CCGCTATA", "PBM E-score": -0.129}, {"sequence": "TGCCGAAA", "PBM E-score": -0.01}, {"sequence": "AATCACCG", "PBM E-score": -0.0781}, {"sequence": "ATTGGAGA", "PBM E-score": -0.179}, {"sequence": "AATTGGAA", "PBM E-score": 0.0798}, {"sequence": "CGGTGCGA", "PBM E-score": -0.22}, {"sequence": "CGATGCCC", "PBM E-score": -0.317}, {"sequence": "CCAGACGG", "PBM E-score": -0.383}, {"sequence": "ACAACTCA", "PBM E-score": 0.136}, {"sequence": "ATAAGATA", "PBM E-score": 0.0848}, {"sequence": "CAGTGTGC", "PBM E-score": -0.00973}, {"sequence": "AAGACCAC", "PBM E-score": -0.0616}, {"sequence": "CTCATTGA", "PBM E-score": -0.177}, {"sequence": "AACTCGAT", "PBM E-score": 0.0481}, {"sequence": "CAGAGTGA", "PBM E-score": -0.0154}, {"sequence": "ACACTCCG", "PBM E-score": 0.136}, {"sequence": "AGGATGGC", "PBM E-score": -0.182}, {"sequence": "CCAGAGAG", "PBM E-score": -0.375}, {"sequence": "CGCTGGCC", "PBM E-score": -0.282}, {"sequence": "GTAGCCAA", "PBM E-score": -0.126}, {"sequence": "GTAGGCGA", "PBM E-score": -0.00968}, {"sequence": "AAACCGTT", "PBM E-score": 0.0697}, {"sequence": "CGAGAGTA", "PBM E-score": 0.0867}, {"sequence": "AGCAGCTG", "PBM E-score": -0.0318}, {"sequence": "CGACAGTC", "PBM E-score": -0.303}, {"sequence": "AGTATAAG", "PBM E-score": 0.116}, {"sequence": "ATCGCAAG", "PBM E-score": -0.124}, {"sequence": "CAGGGGCG", "PBM E-score": -0.037}, {"sequence": "ACCCGTAG", "PBM E-score": -0.323}, {"sequence": "ACAACCTC", "PBM E-score": -0.0767}, {"sequence": "CGCTTATC", "PBM E-score": -0.104}, {"sequence": "GCGTGTGA", "PBM E-score": 0.177}, {"sequence": "TTCATGAA", "PBM E-score": 0.0534}, {"sequence": "AACGACCT", "PBM E-score": -0.0704}, {"sequence": "CTGTGTGA", "PBM E-score": 0.181}, {"sequence": "CATTGCGG", "PBM E-score": -0.219}, {"sequence": "CTTCCCCA", "PBM E-score": -0.0726}, {"sequence": "AGAATGGA", "PBM E-score": -0.0583}, {"sequence": "CCAATTTA", "PBM E-score": 0.13}, {"sequence": "AGCCTGCA", "PBM E-score": 0.344}, {"sequence": "CTATATAG", "PBM E-score": -0.00389}, {"sequence": "ATTGCCGA", "PBM E-score": -0.0541}, {"sequence": "AACGCCTC", "PBM E-score": -0.0755}, {"sequence": "CCAGTAAC", "PBM E-score": -0.185}, {"sequence": "GGTGTACA", "PBM E-score": 0.168}, {"sequence": "CTAAAGTA", "PBM E-score": 0.0618}, {"sequence": "CAGCTCTA", "PBM E-score": -0.168}, {"sequence": "CTATGATA", "PBM E-score": 0.00157}, {"sequence": "GCCCCGAA", "PBM E-score": -0.311}, {"sequence": "ACTTCTTA", "PBM E-score": 0.0534}, {"sequence": "TACTGAGA", "PBM E-score": -0.0385}, {"sequence": "GTGCAGGA", "PBM E-score": 0.153}, {"sequence": "AAGTTCCG", "PBM E-score": 0.0427}, {"sequence": "AAACGGGA", "PBM E-score": -0.197}, {"sequence": "AAGCTCCT", "PBM E-score": -0.11}, {"sequence": "AAAAATCG", "PBM E-score": -0.229}, {"sequence": "CGCTACCG", "PBM E-score": -0.206}, {"sequence": "AGCATAGC", "PBM E-score": -0.0866}, {"sequence": "GGTCTCTA", "PBM E-score": -0.232}, {"sequence": "GGAGTAAC", "PBM E-score": -0.205}, {"sequence": "AGCGATCA", "PBM E-score": -0.201}, {"sequence": "CAGCGCGA", "PBM E-score": -0.0906}, {"sequence": "TGCCGGCA", "PBM E-score": 0.113}, {"sequence": "CATGGGGG", "PBM E-score": -0.117}, {"sequence": "GCATCCCA", "PBM E-score": -0.213}, {"sequence": "GGTTGGTA", "PBM E-score": -0.0527}, {"sequence": "AAAGCAGG", "PBM E-score": -0.0323}, {"sequence": "AGAGGGAG", "PBM E-score": -0.253}]}]}
